# The full ranking holds about 33,000 sequences; the median of “E-score (-0.5 to 0.5)” is about -0.053, and the highest 2% start at about 0.37. Some of the results follow.
# Biological target: Hap1 (UniProt P0CE41)
# Assay: PBM E-score (8-mer binding enrichment) (E-score (-0.5 to 0.5)); higher = stronger / more preferred TF binding; most listed sequences are background and not binding sites
# Details: protein concentration: 200 nM; construct: GST-DNA-binding domain
# Outline: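 Yeast transcription factors, full-length or as DNA-binding domains, were expressed with a GST tag using PURExpress in vitro transcription/translation. At about 100-200 nM they were applied to universal all-10-mer Agilent arrays, double-stranded by primer extension on fresh or once-stripped slides. Fluorescent anti-GST detected bound protein, and masliner normalised the scans. E-scores for ungapped eight-base words, pooled with reverse complements, came from the Universal PBM Analysis Suite.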
# Sequence of UniProt P0CE41 (P0CE41 whole entry): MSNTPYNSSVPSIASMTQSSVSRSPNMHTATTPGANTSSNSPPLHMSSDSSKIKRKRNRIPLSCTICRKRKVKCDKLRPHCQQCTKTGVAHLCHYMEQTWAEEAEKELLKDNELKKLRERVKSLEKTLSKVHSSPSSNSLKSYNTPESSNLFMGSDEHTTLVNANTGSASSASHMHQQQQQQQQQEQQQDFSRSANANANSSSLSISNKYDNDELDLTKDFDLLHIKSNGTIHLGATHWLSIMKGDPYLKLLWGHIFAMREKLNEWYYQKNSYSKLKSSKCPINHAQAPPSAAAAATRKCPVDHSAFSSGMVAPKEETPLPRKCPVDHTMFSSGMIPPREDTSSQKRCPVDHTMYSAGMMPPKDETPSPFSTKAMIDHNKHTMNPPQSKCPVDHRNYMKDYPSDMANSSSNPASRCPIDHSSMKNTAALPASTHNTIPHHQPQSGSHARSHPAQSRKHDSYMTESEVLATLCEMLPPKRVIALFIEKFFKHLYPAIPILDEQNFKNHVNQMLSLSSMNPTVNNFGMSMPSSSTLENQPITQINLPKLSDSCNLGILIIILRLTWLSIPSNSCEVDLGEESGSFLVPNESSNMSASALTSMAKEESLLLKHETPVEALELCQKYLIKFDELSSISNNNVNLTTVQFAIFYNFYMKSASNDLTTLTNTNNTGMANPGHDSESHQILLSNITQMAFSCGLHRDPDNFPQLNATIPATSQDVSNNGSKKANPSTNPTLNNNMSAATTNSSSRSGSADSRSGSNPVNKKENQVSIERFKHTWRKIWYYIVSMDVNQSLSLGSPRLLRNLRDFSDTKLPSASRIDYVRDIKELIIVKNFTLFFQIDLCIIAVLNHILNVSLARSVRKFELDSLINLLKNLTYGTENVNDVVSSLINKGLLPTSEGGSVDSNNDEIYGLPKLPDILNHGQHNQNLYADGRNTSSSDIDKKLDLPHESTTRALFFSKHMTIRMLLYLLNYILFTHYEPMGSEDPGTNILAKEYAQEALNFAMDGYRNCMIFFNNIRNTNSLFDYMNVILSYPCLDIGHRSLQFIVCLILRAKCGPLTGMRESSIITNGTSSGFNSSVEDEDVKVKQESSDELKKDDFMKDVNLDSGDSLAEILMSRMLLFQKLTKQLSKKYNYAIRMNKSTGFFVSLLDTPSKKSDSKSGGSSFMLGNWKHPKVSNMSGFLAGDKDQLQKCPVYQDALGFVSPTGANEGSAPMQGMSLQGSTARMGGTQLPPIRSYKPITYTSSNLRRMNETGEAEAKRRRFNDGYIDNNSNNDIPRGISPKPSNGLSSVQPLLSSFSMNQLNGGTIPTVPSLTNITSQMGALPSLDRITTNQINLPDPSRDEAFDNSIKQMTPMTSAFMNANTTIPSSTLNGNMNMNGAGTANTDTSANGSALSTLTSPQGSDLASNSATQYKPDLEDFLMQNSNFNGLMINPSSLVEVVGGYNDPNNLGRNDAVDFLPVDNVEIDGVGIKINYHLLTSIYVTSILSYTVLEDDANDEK
row,Sequence,PBM E-score
1,AGCCTAGC,-0.14
2,AACCCTCT,-0.19
3,AGACCCGA,0.347
4,CCGCGTCA,-0.0323
5,GACTATCC,0.0769
6,ATTAGTAG,-0.134
7,AACAACTT,-0.0394
8,GCCACGGA,0.3
9,CTCCCATC,-0.0417
10,CAGAGACA,-0.22
11,ACACCTCT,-0.15
12,ACAACTTC,0.00956
13,CGGCCTCA,0.204
14,GAATTAGA,-0.0219
15,ACACTTTG,-0.0807
16,GCTGCAAA,-0.0447
17,TTATGAAA,0.0619
18,AGCTCGTC,-0.0097
19,ATTAGACC,0.0558
20,CCGCAAAA,0.295
21,CAACGACC,0.0497
22,GTGGGAAA,-0.0848
23,AGGACCCC,-0.0574
24,CGGGCCCA,0.26

row,Sequence,PBM E-score
1,CCGATTCA,0.0816
2,CCGGGTAC,0.179
3,CTCACCCA,-0.0601
4,CGCGACTC,-0.00413
5,TATAGAGA,-0.388
6,CGTGACAC,0.0111
7,AGCAGATG,-0.378
8,CCATTTCA,-0.277
9,AATCGAAA,-0.0702
10,GCAACGAC,-0.00642
11,CTCATGTA,-0.16
12,AAAGCGGG,-0.0186
13,CCGACTCA,0.163
14,CAAGAGTA,-0.0578
15,GAGACCAC,-0.102
16,CGATCGGA,0.354
17,AGTTTGTA,-0.0891
18,ATATCGAC,0.132
19,CGTATTCA,-0.0827
20,CGATTACG,0.0252
21,ATACCAGC,-0.0328
22,AGGTTGAT,-0.254
23,ATTTGAAG,0.136
24,GACCTACC,0.127

row,Sequence,PBM E-score
1,GAGGTCCC,0.0465
2,TGCGCACA,-0.0738
3,AATTATCG,0.26
4,TACTAGTA,-0.0786
5,ATATTACC,0.0991
6,AATCGGGG,0.301
7,GAGTTCGA,-0.0742
8,AATATAGC,-0.167
9,AGAAGAAA,-0.0706
10,GCTAGCAA,-0.164
11,CGCGGGGC,0.159
12,CAGCCGCC,0.215
13,ACTAGAGC,-0.146
14,ACATAGGA,-0.155
15,GCTCTCGA,-0.271
16,AGTACGAG,0.0666
17,AACGGCGT,0.123
18,CGACTTAG,-0.179
19,GCTAACTA,0.0575
20,GCCCCTTA,0.0201
21,GCCCTAAA,-0.0473
22,ACTCTTCG,0.0527
23,ACCAAACG,-0.162
24,CTACTGTC,-0.136

row,Sequence,PBM E-score
1,ACTCCAGT,-0.245
2,GAGTTTAC,0.223
3,ACTAACAT,-0.0737
4,AACCTAAC,0.12
5,AAGGTGGG,-0.232
6,TGCCCAAA,-0.178
7,CCAGATAA,0.0917
8,GGCATTTA,0.00196
9,ATGAGCTG,-0.138
10,AGCACTAC,-0.202
11,ATGTGTAC,-0.272
12,ACCCTGCG,-0.121
13,AAGTGCCT,-0.246
14,CAACCGGC,0.334
15,ATTAGCTA,-0.14
16,ATTCGCCC,0.252
17,ATAGCGCC,0.171
18,CAAGCAGA,-0.159
19,GCGGAGGA,0.17
20,AAACGGAA,0.274
21,ACGCGTGG,0.0356
22,CCAGACGC,-0.247
23,CAACTAAC,0.163
24,CCTATGGA,-0.035

# — the supplement of paper PMC3334620
